From paper PMC9275676
These are yes or no findings as the source states them, for the method shown. In cells and extracts the contact can be indirect. Some results given as binding are weak or reduced against the parent protein; the word gives no strength. For some of these results: Tags and fused reporters may be left off the sequences shown. Values belong to the molecule of their own block, whether it stands above or below them.

By UniProt entry, the sequences of proteins in these tests, tags left out.
UniProt O15550: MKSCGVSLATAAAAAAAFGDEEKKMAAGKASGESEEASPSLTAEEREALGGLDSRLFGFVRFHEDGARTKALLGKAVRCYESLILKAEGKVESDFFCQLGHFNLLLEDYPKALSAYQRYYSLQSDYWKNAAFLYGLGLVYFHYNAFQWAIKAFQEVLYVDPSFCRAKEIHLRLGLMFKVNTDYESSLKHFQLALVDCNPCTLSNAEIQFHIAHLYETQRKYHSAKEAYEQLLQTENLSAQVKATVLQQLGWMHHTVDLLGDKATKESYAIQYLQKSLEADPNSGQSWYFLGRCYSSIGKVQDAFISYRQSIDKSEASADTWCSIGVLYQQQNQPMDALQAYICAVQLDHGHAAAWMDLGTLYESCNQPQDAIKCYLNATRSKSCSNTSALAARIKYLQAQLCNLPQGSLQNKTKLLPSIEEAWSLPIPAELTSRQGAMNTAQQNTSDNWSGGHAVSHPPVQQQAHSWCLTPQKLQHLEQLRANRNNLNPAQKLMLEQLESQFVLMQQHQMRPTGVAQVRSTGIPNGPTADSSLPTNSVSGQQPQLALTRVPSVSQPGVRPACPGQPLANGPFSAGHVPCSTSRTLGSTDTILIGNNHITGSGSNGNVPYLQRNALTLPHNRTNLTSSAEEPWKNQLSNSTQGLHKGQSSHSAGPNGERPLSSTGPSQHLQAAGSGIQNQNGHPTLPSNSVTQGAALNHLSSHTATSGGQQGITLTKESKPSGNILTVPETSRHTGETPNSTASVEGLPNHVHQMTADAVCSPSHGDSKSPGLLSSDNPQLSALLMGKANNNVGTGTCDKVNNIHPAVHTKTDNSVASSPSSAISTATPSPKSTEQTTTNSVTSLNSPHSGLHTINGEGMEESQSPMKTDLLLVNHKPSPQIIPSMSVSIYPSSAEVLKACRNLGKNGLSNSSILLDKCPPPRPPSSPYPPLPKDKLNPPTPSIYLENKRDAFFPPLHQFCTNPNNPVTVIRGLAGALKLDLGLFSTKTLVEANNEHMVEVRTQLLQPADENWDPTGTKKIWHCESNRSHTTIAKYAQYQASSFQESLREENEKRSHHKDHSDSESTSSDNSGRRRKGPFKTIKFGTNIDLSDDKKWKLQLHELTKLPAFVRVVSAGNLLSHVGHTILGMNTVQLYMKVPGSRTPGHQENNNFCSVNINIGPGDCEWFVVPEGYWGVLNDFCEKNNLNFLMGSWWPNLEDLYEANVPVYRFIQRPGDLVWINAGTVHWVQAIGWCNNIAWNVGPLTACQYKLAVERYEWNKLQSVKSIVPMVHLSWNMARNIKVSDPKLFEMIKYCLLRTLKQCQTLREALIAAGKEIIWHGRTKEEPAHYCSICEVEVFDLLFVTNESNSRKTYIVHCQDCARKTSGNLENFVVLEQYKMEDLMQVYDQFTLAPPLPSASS
UniProt Q13547: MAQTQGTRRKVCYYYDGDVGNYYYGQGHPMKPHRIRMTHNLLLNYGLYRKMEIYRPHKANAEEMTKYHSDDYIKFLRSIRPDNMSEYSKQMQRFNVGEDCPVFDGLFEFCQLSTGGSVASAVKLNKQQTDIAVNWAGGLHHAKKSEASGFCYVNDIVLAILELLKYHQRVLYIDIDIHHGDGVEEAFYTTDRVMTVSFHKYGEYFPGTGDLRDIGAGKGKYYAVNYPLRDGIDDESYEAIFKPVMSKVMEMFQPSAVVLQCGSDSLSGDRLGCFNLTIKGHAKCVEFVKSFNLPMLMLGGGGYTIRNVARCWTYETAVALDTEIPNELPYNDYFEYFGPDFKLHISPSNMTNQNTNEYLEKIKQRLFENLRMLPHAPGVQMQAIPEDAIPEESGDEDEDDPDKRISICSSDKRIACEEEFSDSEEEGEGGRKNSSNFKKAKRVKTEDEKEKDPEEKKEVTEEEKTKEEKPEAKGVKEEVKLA
UniProt O09106: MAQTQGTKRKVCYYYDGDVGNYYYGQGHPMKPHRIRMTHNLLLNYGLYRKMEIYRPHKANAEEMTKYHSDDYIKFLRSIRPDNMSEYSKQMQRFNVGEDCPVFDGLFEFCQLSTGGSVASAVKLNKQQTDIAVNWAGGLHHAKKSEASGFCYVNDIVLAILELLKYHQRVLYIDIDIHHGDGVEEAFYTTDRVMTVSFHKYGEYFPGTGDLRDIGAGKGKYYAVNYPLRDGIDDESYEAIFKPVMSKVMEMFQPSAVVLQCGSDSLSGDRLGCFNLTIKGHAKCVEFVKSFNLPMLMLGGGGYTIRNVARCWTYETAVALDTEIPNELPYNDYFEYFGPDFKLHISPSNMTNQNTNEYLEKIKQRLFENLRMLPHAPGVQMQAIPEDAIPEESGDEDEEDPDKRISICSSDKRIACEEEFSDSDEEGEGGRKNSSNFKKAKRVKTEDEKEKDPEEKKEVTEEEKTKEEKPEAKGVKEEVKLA
UniProt Q92769: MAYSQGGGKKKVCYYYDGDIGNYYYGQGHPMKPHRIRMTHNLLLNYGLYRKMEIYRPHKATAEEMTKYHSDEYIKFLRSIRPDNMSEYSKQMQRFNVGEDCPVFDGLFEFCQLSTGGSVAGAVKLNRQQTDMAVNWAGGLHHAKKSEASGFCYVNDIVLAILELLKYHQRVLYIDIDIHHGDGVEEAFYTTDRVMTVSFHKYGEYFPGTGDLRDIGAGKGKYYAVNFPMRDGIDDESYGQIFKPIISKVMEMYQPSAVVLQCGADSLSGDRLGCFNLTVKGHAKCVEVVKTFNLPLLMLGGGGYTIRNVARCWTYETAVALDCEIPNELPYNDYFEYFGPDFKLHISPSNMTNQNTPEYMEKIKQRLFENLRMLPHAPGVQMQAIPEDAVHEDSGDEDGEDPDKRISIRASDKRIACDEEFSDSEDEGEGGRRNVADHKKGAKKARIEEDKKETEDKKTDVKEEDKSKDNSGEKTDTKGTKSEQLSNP
UniProt Q92830: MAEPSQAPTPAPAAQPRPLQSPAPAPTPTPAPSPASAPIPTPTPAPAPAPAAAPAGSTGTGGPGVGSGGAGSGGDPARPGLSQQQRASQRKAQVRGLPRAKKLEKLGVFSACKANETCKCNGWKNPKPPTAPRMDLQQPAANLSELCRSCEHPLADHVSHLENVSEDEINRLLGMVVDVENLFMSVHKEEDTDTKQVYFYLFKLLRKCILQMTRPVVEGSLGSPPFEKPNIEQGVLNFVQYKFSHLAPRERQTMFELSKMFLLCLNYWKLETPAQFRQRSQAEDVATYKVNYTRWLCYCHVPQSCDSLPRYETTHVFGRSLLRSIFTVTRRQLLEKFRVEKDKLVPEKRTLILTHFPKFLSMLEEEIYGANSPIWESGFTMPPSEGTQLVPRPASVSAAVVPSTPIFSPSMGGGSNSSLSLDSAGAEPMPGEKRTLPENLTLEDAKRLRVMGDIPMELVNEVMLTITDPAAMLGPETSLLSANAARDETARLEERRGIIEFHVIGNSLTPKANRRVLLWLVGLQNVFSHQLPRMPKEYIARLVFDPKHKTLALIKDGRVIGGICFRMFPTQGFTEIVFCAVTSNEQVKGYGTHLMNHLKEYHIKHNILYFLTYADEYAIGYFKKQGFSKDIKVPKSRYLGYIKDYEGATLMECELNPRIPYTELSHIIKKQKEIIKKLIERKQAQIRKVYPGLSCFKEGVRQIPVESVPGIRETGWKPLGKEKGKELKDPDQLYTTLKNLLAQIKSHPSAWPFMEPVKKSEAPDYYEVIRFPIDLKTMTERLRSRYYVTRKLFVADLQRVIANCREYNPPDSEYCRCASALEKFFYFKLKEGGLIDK
UniProt Q15291: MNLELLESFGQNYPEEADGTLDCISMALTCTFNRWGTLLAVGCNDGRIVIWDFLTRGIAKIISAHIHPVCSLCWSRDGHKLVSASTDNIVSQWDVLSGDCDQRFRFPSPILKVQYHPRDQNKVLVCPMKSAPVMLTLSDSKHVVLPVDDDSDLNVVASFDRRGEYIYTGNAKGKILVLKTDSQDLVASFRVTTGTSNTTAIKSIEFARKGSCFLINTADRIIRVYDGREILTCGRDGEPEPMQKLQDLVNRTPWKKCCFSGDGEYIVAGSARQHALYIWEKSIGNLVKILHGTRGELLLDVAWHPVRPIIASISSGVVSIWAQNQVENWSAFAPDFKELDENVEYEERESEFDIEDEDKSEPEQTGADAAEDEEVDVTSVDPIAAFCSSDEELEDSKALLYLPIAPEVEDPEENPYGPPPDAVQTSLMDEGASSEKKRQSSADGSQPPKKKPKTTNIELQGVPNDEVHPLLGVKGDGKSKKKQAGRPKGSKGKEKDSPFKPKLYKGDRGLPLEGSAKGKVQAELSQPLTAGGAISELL

Assays:
FLAG-ELMSAN1 = biological target: T1, FLAG-ELMSAN1 (UniProt Q6PJG2); assay: co-IP; FLAG IP (FLAG-UTX, FLAG-ELMSAN1 or FLAG-DNTTIP1) from nuclear extracts of HEK293 cells, Western blot; FLAG-tag expressing cells as IP control
T1 sequence: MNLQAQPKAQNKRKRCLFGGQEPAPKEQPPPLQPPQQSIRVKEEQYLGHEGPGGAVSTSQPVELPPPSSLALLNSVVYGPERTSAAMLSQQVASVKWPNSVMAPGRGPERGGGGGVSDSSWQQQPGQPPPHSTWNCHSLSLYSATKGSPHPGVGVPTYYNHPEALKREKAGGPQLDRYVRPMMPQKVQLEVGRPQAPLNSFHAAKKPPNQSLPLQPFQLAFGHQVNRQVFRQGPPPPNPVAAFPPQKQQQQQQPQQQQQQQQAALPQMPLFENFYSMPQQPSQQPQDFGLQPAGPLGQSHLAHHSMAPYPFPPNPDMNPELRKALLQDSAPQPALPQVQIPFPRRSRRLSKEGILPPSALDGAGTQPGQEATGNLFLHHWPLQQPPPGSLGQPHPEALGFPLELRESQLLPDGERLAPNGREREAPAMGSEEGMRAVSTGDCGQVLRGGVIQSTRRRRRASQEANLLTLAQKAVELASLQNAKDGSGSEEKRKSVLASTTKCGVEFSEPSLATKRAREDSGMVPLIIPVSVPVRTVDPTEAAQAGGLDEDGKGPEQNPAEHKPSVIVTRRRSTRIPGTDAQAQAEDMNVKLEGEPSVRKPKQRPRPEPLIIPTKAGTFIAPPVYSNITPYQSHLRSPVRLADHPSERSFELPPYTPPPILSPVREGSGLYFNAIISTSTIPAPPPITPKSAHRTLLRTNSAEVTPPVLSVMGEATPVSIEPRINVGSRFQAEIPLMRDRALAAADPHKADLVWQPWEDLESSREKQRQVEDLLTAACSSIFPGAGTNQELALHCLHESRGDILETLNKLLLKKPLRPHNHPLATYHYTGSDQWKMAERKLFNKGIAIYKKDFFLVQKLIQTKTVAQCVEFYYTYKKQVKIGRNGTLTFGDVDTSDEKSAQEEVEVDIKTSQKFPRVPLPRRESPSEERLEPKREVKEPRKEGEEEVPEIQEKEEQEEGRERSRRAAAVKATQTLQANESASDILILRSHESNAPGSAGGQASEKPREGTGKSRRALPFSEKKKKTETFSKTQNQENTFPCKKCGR

[1] = biological target: T2, DNTTIP1 (endogenous, mouse embryonic stem cells) (mouse (endogenous in mESCs)) (UniProt Q99LB0); assay: co-IP; IP of endogenous UTX or DNTTIP1 with antibodies (5 ug per IP) from nuclear extracts of WT and Mll3/4 DKO mESCs, Western blot; IgG as IP control
T2 sequence: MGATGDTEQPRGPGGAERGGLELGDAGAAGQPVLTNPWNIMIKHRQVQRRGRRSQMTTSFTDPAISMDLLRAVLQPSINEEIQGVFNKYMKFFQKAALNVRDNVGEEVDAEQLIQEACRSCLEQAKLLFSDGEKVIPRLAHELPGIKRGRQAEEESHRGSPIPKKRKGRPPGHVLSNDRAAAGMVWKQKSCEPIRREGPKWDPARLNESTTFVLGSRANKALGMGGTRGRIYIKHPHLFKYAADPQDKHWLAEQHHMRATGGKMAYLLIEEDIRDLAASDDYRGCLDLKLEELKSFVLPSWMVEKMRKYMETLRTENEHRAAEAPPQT

FLAG-DNTTIP1 = biological target: T3, FLAG-DNTTIP1 (UniProt Q9H147); assay: co-IP; FLAG IP (FLAG-UTX, FLAG-ELMSAN1 or FLAG-DNTTIP1) from nuclear extracts of HEK293 cells, Western blot; FLAG-tag expressing cells as IP control
T3 sequence: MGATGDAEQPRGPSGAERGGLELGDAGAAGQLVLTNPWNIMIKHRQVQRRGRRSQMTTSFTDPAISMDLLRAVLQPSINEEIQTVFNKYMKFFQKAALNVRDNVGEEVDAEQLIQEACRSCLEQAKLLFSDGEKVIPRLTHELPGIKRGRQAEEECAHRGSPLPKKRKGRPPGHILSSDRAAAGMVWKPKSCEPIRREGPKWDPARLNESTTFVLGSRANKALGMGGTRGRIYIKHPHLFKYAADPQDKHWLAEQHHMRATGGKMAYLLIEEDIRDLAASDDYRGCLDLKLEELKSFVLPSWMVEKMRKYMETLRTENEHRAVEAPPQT

[2] = biological target: FLAG-UTX (tetracycline-inducible HEK293 line) (UniProt O15550); assay: as above
[3] = biological target: FLAG-UTX (tetracycline-inducible HEK293 line) (UniProt O15550); assay: co-sedimentation; glycerol gradient fractionation of FLAG-affinity purified UTX from nuclear extracts of HEK293 cells; 34 fractions analysed by Western blot
[4] = biological target: FLAG-UTX (tetracycline-inducible HEK293 line) (UniProt O15550); assay: co-IP; FLAG IP (FLAG-UTX, FLAG-ELMSAN1 or FLAG-DNTTIP1) from nuclear extracts of HEK293 cells, Western blot; FLAG-tag expressing cells as IP control; remark: listed apart in the source
[5] = biological target: FLAG-UTX (transiently transfected into HCT116 cells) (UniProt O15550); assay: co-IP; FLAG IP from nuclear extracts of MLL3+/+ MLL4+/+, MLL3-/- MLL4+/+ and MLL3-/- MLL4-/- HCT116 cells transiently transfected with FLAG-UTX, Western blot; FLAG-tag plasmid as IP control

binding (FLAG-ELMSAN1): binds
Molecule: HDAC1 (endogenous, human cells) (from UniProt Q13547 1-482) (enzyme)

binding [1]: binds
Molecule: HDAC1 (endogenous, mouse embryonic stem cells) (from UniProt O09106 1-482) (enzyme)

binding (FLAG-ELMSAN1): binds
binding (FLAG-DNTTIP1): binds
Molecule: HDAC2 (endogenous, HEK293) (from UniProt Q92769 1-488) (enzyme)

binding [2]: no binding
Molecule: KAT2A (endogenous, HEK293) (from UniProt Q92830 1-837) (enzyme)

binding [3]: binds
binding [2]: binds
Molecule: RBBP5 (endogenous, HEK293) (from UniProt Q15291 1-538)

binding [4]: binds
binding [3]: binds
binding [5]: binds
B1: ELMSAN1 (endogenous, human cells) (protein, UniProt Q6PJG2 1-1045)
chain: T1 sequence
